According to a collection of fitness landscapes (doi:10.1016/j.celrep.2020.107928):
Whole data set: some 81,000 sequences, median “one-hybrid fitness for binding NBS DNA” near -0.1, cut for the highest 2% near 0.36. The list shows a part of the results.

B1: Caulobacter ParB omega fusion; a variant is named by its letters at X, in order, B8GW30 (parent)
chain: MESVVVGEPGMSEGRRGLGRGLSALLGEVDAAPAQAPGEQLGGSREAPIEILQRNPDQPRRTFREEDLEDLSNSIREKGVLQPILVRPSPDTAGEYQIVAGERAWRAAQRAGLKTVPIMVRELDDLAVLEIGIIENVQRADLNVLEEALSYKVLMEKFERTQENIAQTIGKSXSHVANXMRLLXLPDEVQSYLVSGELTAXHARAIAAAADPVALAKQIIEGGLSVRETEALARKAPNLSAGKSKGGRPPRVKDTDTQALESDLSSVLGLDVSIDHRGSTGTLTITYATLEQLDDLCNRLTRGI

Variants of: B1
Assay: one-hybrid fitness for binding NBS DNA (the Noc-binding site; scaled: cognate 1, non-cognate 0); higher = stronger binding
Conditions: with NBS DNA site
Procedure, shortened: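 Bacterial one-hybrid selection in E. coli USO rpoZ- hisB- pyrF- with a HIS3 reporter carrying the site 19 bp from the promoter, screening Caulobacter ParB libraries with four specificity codons randomised (NNS). Cells grew 48 hours at 37°C on M9-minus-histidine plus 0.1 mM IPTG and 5 mM 3-AT. Plasmids before and after selection were Illumina-sequenced, three replicate libraries pooled, and variants under 10 reads dropped. Fitness is the log change in variant-to-wild-type read ratio, rescaled to cognate 1, non-cognate 0.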

Variant | one-hybrid fitness for binding NBS DNA
QGDL | ≤ 0.2
AYWY | ≤ 0.2
TGVG | ≤ 0.2
DYKS | ≤ 0.2
QFHR | 0.288
HWNV | ≤ 0.2
GYMR | ≤ 0.2
CHQR | ≤ 0.2
YMFT | ≤ 0.2
LTMY | ≤ 0.2
VVFG | ≤ 0.2
QSTL | ≤ 0.2
YTIC | ≤ 0.2
GGMV | ≤ 0.2
RKSR | 0.581
KHIS | ≤ 0.2
KRFN | ≤ 0.2
LSDE | ≤ 0.2
LSSS | ≤ 0.2
IGCV | ≤ 0.2
SDSV | ≤ 0.2
IFST | ≤ 0.2
HPHE | ≤ 0.2
MKAR | ≤ 0.2

Variant | one-hybrid fitness for binding NBS DNA
VTTY | ≤ 0.2
QQWA | 0.212
TMAN | ≤ 0.2
IPES | ≤ 0.2
GCEN | ≤ 0.2
HTTP | ≤ 0.2
FLGL | ≤ 0.2
YNRY | ≤ 0.2
CQAV | ≤ 0.2
PPMS | ≤ 0.2
DNTL | ≤ 0.2
SHAI | ≤ 0.2
QPRR | 0.365
FTNT | ≤ 0.2
LAAA | ≤ 0.2
KAKC | ≤ 0.2
DRHF | ≤ 0.2
NNRR | ≤ 0.2
DQST | ≤ 0.2
LQGW | ≤ 0.2
RLKV | ≤ 0.2
KVVT | ≤ 0.2
LLCL | ≤ 0.2
YVIR | ≤ 0.2

Variant | one-hybrid fitness for binding NBS DNA
HLGM | ≤ 0.2
TANW | ≤ 0.2
HITC | ≤ 0.2
SDVM | ≤ 0.2
NVNT | ≤ 0.2
RLAY | ≤ 0.2
HVAT | ≤ 0.2
GDFT | ≤ 0.2
DPID | ≤ 0.2
RSTT | 0.426
KGMG | ≤ 0.2
PNPT | ≤ 0.2
PGQI | ≤ 0.2
PHGH | ≤ 0.2
ANER | ≤ 0.2
QKGN | ≤ 0.2
SPHW | ≤ 0.2
YDFI | ≤ 0.2
FCSR | ≤ 0.2
QDYL | ≤ 0.2
GLRW | ≤ 0.2
RVNG | ≤ 0.2
TVKT | ≤ 0.2
LGSN | ≤ 0.2

Variant | one-hybrid fitness for binding NBS DNA
GLLC | ≤ 0.2
QSIS | 0.232
PWTF | ≤ 0.2
GHIE | ≤ 0.2
IEFC | ≤ 0.2
RHAV | ≤ 0.2
YRGA | ≤ 0.2
NRPG | ≤ 0.2
TKHT | ≤ 0.2
FSLS | ≤ 0.2
EVVL | ≤ 0.2
FCLT | ≤ 0.2
ARRG | ≤ 0.2
HLSQ | ≤ 0.2
LCYG | ≤ 0.2
MWLW | ≤ 0.2
SDSI | ≤ 0.2
SNYG | ≤ 0.2
MRLM | ≤ 0.2
PFHV | ≤ 0.2
QYSH | ≤ 0.2
SKVI | ≤ 0.2
EPLC | ≤ 0.2
HKSS | ≤ 0.2

Variant | one-hybrid fitness for binding NBS DNA
YKAT | ≤ 0.2
VQCS | ≤ 0.2
QQLY | ≤ 0.2
THGT | ≤ 0.2
WYES | ≤ 0.2
CRRL | ≤ 0.2
ALLR | ≤ 0.2
NEQM | ≤ 0.2
MPKG | ≤ 0.2
SARC | ≤ 0.2
YVGI | ≤ 0.2
RMWV | ≤ 0.2
CGNC | ≤ 0.2
SAGW | ≤ 0.2
SRCD | ≤ 0.2
KRIC | ≤ 0.2
TRTV | ≤ 0.2
WEPL | ≤ 0.2
RKDK | ≤ 0.2
PLRP | ≤ 0.2
EAGH | ≤ 0.2
LCKH | ≤ 0.2
RKCL | ≤ 0.2
ATHN | ≤ 0.2

Variant | one-hybrid fitness for binding NBS DNA
EKHF | ≤ 0.2
QQEV | ≤ 0.2
HSEP | ≤ 0.2
IVIC | ≤ 0.2
PNCR | ≤ 0.2
KNDK | ≤ 0.2
WLTV | ≤ 0.2
MQTT | ≤ 0.2
DGTS | ≤ 0.2
RYYH | ≤ 0.2
QCTW | ≤ 0.2
PFDS | ≤ 0.2
CRIG | ≤ 0.2
YAWW | ≤ 0.2
TDRY | ≤ 0.2
PNIE | ≤ 0.2
AQFC | ≤ 0.2
TSTY | ≤ 0.2
GMAT | ≤ 0.2
ADMI | ≤ 0.2
HAHC | ≤ 0.2
CLSF | ≤ 0.2
HINM | ≤ 0.2
HPRK | ≤ 0.2

Variant | one-hybrid fitness for binding NBS DNA
PKIW | ≤ 0.2
QSVC | ≤ 0.2
EIIR | ≤ 0.2
EDME | ≤ 0.2
HKDD | ≤ 0.2
ESWG | ≤ 0.2
YVFS | ≤ 0.2
QMCR | 0.509
RVCE | ≤ 0.2
TLKR | 0.242
HPSL | ≤ 0.2
VTKH | ≤ 0.2
IAPG | ≤ 0.2
IERR | ≤ 0.2
HWTR | ≤ 0.2
SRVE | ≤ 0.2
ALDS | ≤ 0.2
QQMY | ≤ 0.2
RSCW | ≤ 0.2
VVSR | ≤ 0.2
VRRV | ≤ 0.2
LKIS | ≤ 0.2
GMIR | ≤ 0.2
TEPT | ≤ 0.2

Variant | one-hybrid fitness for binding NBS DNA
TFYG | ≤ 0.2
SSHH | ≤ 0.2
REHN | ≤ 0.2
DQAR | ≤ 0.2
NLRH | ≤ 0.2
CLRK | ≤ 0.2
QQMW | ≤ 0.2
ASPN | ≤ 0.2
CLNC | ≤ 0.2
VANG | ≤ 0.2
QFKA | ≤ 0.2
KLKM | ≤ 0.2
VMRP | ≤ 0.2
FINT | ≤ 0.2
TGRM | ≤ 0.2
QVEC | ≤ 0.2
YLWT | ≤ 0.2
DNVR | ≤ 0.2
TWYC | ≤ 0.2
TITL | ≤ 0.2
RGMP | ≤ 0.2
AHQI | ≤ 0.2
RVGQ | ≤ 0.2
TMPI | ≤ 0.2

Variant | one-hybrid fitness for binding NBS DNA
MKTL | ≤ 0.2
ASHV | ≤ 0.2
LMYF | ≤ 0.2
QVQF | ≤ 0.2
WTMS | ≤ 0.2
RDFC | ≤ 0.2
LRSP | ≤ 0.2
LAWS | ≤ 0.2
SPCT | ≤ 0.2
YVGC | ≤ 0.2
MIPM | ≤ 0.2
TRPP | ≤ 0.2
LSQD | ≤ 0.2
PILT | ≤ 0.2
LDVS | ≤ 0.2
PMRR | ≤ 0.2
QRPS | 0.461
CYLF | ≤ 0.2
LKLL | ≤ 0.2
AIAF | ≤ 0.2
QEIV | ≤ 0.2
RKEY | ≤ 0.2
YISF | ≤ 0.2
ARWV | ≤ 0.2

Variant | one-hybrid fitness for binding NBS DNA
SSWI | ≤ 0.2
AIRV | ≤ 0.2
NYSA | ≤ 0.2
DYGV | ≤ 0.2
KSMD | ≤ 0.2
RCES | 0.207
DSVR | ≤ 0.2
HSAQ | ≤ 0.2
YEKM | ≤ 0.2
FSPR | ≤ 0.2
STKG | ≤ 0.2
RKIH | ≤ 0.2
ERPY | ≤ 0.2
ASGP | ≤ 0.2
TRLK | ≤ 0.2
QYSE | ≤ 0.2
QLIV | ≤ 0.2
LSMR | ≤ 0.2
NLVR | ≤ 0.2
IRRE | ≤ 0.2
QASA | ≤ 0.2
AWDC | ≤ 0.2
VRHY | ≤ 0.2
SSHL | ≤ 0.2

Variant | one-hybrid fitness for binding NBS DNA
QVDV | ≤ 0.2
ISSV | ≤ 0.2
RCKN | 0.27
PMLI | ≤ 0.2
AVMV | ≤ 0.2
ILMG | ≤ 0.2
FCES | ≤ 0.2
DHKN | ≤ 0.2
KELL | ≤ 0.2
QILD | ≤ 0.2
LQTF | ≤ 0.2
HHER | ≤ 0.2
AFNL | ≤ 0.2
RNQR | 0.271
DLMR | ≤ 0.2
DYTL | ≤ 0.2
RKRA | 0.45
LLKF | ≤ 0.2
LTYE | ≤ 0.2
SWPT | ≤ 0.2
HEWM | ≤ 0.2
RYRD | ≤ 0.2
RETN | ≤ 0.2
DNIR | ≤ 0.2

Variant | one-hybrid fitness for binding NBS DNA
RLQE | ≤ 0.2
VRTF | ≤ 0.2
QHSL | ≤ 0.2
QSEN | ≤ 0.2
MEMV | ≤ 0.2
GGST | ≤ 0.2
RKVN | ≤ 0.2
SNLY | ≤ 0.2
LENC | ≤ 0.2
VEAG | ≤ 0.2
HGVS | ≤ 0.2
QCTI | ≤ 0.2
NRGE | ≤ 0.2
VRLE | ≤ 0.2
ASIT | ≤ 0.2
GMMM | ≤ 0.2
QMGW | ≤ 0.2
TWLP | ≤ 0.2
CAEG | ≤ 0.2
LYVL | ≤ 0.2
VSVY | ≤ 0.2
ASGW | ≤ 0.2
ASHN | ≤ 0.2
RLST | 0.46

Variant | one-hybrid fitness for binding NBS DNA
ETHY | ≤ 0.2
FGSI | ≤ 0.2
DSMV | ≤ 0.2
PHNY | ≤ 0.2
GDTG | ≤ 0.2
KRTR | 0.563
KMVA | ≤ 0.2
LIAC | ≤ 0.2
ALVD | ≤ 0.2
CPMR | ≤ 0.2
PKCF | ≤ 0.2
TMQC | ≤ 0.2
MKYR | 0.298
QANG | ≤ 0.2
MVGD | ≤ 0.2
TSSV | ≤ 0.2
TKQP | ≤ 0.2
SNWR | ≤ 0.2
